Experimental data as given in the supplement of paper PMC3334620.
The full ranking holds about 33,000 sequences; the median of “E-score (-0.5 to 0.5)” is about -0.016, and the highest 2% start at about 0.32. The list shows a part of the results.

biological target: T1, Stp1 (UniProt B3LFK1); assay: PBM E-score (8-mer binding enrichment) (E-score (-0.5 to 0.5)); higher = stronger / more preferred TF binding; most listed sequences are background and not binding sites; conditions: protein concentration: 200 nM; construct: GST-full length
T1 sequence: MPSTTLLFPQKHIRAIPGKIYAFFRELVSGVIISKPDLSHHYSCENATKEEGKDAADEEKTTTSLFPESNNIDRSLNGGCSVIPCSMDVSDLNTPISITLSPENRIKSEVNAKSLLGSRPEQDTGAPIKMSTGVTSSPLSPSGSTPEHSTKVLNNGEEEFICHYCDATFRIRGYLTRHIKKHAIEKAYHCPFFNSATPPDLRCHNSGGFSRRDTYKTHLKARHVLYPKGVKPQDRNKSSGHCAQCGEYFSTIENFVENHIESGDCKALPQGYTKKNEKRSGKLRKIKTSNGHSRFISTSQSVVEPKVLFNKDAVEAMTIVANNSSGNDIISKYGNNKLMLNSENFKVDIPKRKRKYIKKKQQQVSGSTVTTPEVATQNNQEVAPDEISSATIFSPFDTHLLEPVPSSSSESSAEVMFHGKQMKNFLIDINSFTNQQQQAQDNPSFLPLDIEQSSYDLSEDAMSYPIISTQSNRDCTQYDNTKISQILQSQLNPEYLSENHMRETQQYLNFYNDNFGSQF
Procedure: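 Universal 'all 10-mer' protein binding microarrays (Agilent AMADID 015681) probed with GST-tagged S. cerevisiae TFs (full-length or DBD) made by in vitro transcription/translation (PURExpress), about 100-200 nM. Bound TF was detected with fluorescent anti-GST. Each ungapped 8-mer (which stands for itself and its reverse complement) is scored by the PBM enrichment score (E-score), a modified Wilcoxon-Mann-Whitney statistic from -0.5 to +0.5, computed with the Universal PBM Analysis Suite. Scale: above 0.35 generally sequence-specific binding.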

Row | Sequence | PBM E-score
1 | CCGGCCGA | 0.12
2 | CAGCCCCG | -0.208
3 | CCATAGCC | -0.0867
4 | AACCGCCA | -0.153
5 | CTGCGGCA | 0.422
6 | CGTTACCC | -0.121
7 | CCAGTCAC | -0.225
8 | GAAATAGC | 0.0194
9 | CAACCCGG | -0.0873
10 | ATAGTAAA | 0.143
11 | TGATCAAA | -0.0142
12 | CCGTCGGC | 0.152
13 | ACCCAAGA | -0.144
14 | AGAGAGTC | -0.173
15 | AGCGAGCC | -0.00125
16 | GTTTCAGA | 0.13
17 | GACGTACA | -0.0246
18 | AGCTCTGG | -0.2
19 | CGCGCACA | 0.211
20 | AAAATGTC | 0.0611
21 | CATCGAGA | -0.0794
22 | GTGGGAGA | -0.222

Row | Sequence | PBM E-score
23 | CGACCGAG | -0.106
24 | CAACTTGC | -0.104
25 | CAATGGTG | -0.307
26 | ATGGTTCC | 0.0442
27 | AAAATTGC | 0.101
28 | ACGGGTGG | -0.109
29 | CATAACAA | 0.235
30 | CTCAGAAG | -0.0989
31 | CCACCTAA | 0.0326
32 | AGACCGCT | -0.168
33 | ATGCTAAC | 0.0588
34 | ACTCCGAC | -0.111
35 | GCGCTAAC | 0.173
36 | ATCGGAAC | -0.0593
37 | ACCCCACG | -0.185
38 | CCTGGACC | -0.218
39 | CAGGCAAA | 0.0968
40 | AAGTCGCC | 0.0565
41 | GTGGGCAA | -0.0572
42 | AACTTGGC | -0.0907
43 | CTAACTAA | 0.00236
44 | ATGCTCGC | 0.0666

Row | Sequence | PBM E-score
45 | AGCCTGAA | -0.00656
46 | AAATCCCC | -0.262
47 | ACGTCTAC | -0.193
48 | CCAGAGCG | -0.216
49 | GACGCATA | 0.185
50 | ACTGACGG | -0.112
51 | ACTCCCTC | -0.338
52 | ACCATTGG | -0.112
53 | GGAGCGGA | -0.124
54 | AGGCCTGC | -0.11
55 | AGTCCTCG | -0.259
56 | CGGGAACG | -0.0785
57 | ACCCCGAG | -0.0993
58 | CATCGACA | -0.237
59 | ATCACACA | 0.131
60 | AAGTGTGG | -0.043
61 | CATGAATA | 0.0264
62 | AACGCCTA | 0.0856
63 | ACACACTC | 0.00411
64 | AGACCCAA | -0.151
65 | CGCGCCAC | 0.286
66 | CACTCATC | 0.0126

Row | Sequence | PBM E-score
67 | CCAGCGTC | -0.273
68 | AGTAGCAA | 0.0932
69 | CAAAACCC | -0.0331
70 | AGCAGCGC | 0.0916
71 | GGTGAGTA | 0.00682
72 | AGGACTTC | -0.187
73 | AAACAAGA | 0.043
74 | AGACCACG | -0.3
75 | GTGCGAAA | -0.00623
76 | GTGGAAAA | 0.0321
77 | CTTACAAA | 0.0851
78 | ACCGCCGA | 0.0744
79 | ATTTCACA | 0.109
80 | ATTCTGAG | -0.0737
81 | TATTGTCA | 0.127
82 | ACATGCCT | 0.066
83 | CATCTTCG | -0.0797
84 | GTCACTGA | -0.0907
85 | AATTCCGA | -0.0617
86 | AGATCTGG | -0.104
